Results published in the supplement of paper PMC12217912.
Some of the results follow. Sequences were assembled here from the parent chain. Inactive controls read about 0.05.

B1: TEV protease; numbered along this chain (parent)
chain: MGESLFKGPRDYNPISSSICHLTNESDGHTTSLYGIGFGPFIITNKHLFRRNNGTLVVQSLHGVFKVKDTTTLQQHLVDGRDMIIIRMPKDFPPFPQKLKFREPQREERICLVTTNFQTKSMSSMVSDTSCTFPSGDGIFWKHWIQTKDGQCGSPLVSTRDGFIVGIHSASNFTNTNNYFTSVPKNFMELLTNQEAQQWVSGWRLNADSVLWGGHKVFMVKPEEPFQPVKEATQL

Variants of: B1
Assay: raw area under fraction-flipped curve 0-4 h after induction (AUC4h, not background-subtracted), DNA-recorder readout of cleavage of the substrate (dimensionless); higher = more cleavage of the substrate by the protease variant
Conditions: temperature: 34 °C; time window: 0-4 h after rhamnose induction
Protocol: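 In vivo DNA recorder in E. coli TOP10(DE3) ΔrhaA at 34 °C. Each TEVp single-site mutant (parent TEVp 0) is paired with a single-site variant of the 7-mer TEVs (canonical ENLYFQ|S). The substrate sits between flexible linkers in a Bxb1-sfGFP-TEVs-SsrA fusion, so cleavage stabilises Bxb1 and speeds flipping of a recombination array, read by NGS. The value is the raw area under the fraction-flipped curve over 0-4 h after rhamnose induction (AUC4h), with ≥20 reads per time point. It is not background-subtracted; inactive controls average about 0.047.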
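Further: Bxb1 expression induced with 0.2% (w/v) L-rhamnose at OD600 near 0.5, cultures sampled hourly, flipped fraction per protease–substrate barcode pair counted by paired-end Illumina sequencing.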

| Variant | area with substrate CNLYFQS | area with substrate HNLYFQS | area with substrate LNLYFQS | area with substrate MNLYFQS | area with substrate WNLYFQS | area with substrate FNLYFQS | area with substrate KNLYFQS | area with substrate NNLYFQS | area with substrate PNLYFQS | area with substrate RNLYFQS | area with substrate SNLYFQS | area with substrate TNLYFQS | area with substrate VNLYFQS | area with substrate INLYFQS | area with substrate GNLYFQS | area with substrate YNLYFQS | area with substrate QNLYFQS |
| --- | --- | --- | --- | --- | --- | --- | --- | --- | --- | --- | --- | --- | --- | --- | --- | --- | --- |
| N178D | 0.0487 | 0.0667 | 0.0397 | 0.0566 | 0.069 |  |  |  |  |  |  |  |  |  |  |  |  |
| R204S | 0.0766 | 0.0544 | 0.0799 | 0.0764 | 0.0657 | 0.058 | 0.0728 | 0.0728 | 0.0643 | 0.0657 | 0.0727 | 0.0623 | 0.0834 |  |  |  |  |
| Q151D | 0.0641 | 0.0808 | 0.0773 | 0.0703 | 0.0664 | 0.0705 | 0.0736 | 0.0635 | 0.0696 | 0.0532 | 0.0896 | 0.066 |  | 0.0699 |  |  |  |
| E103R | 0.0668 | 0.0099 | 0.0642 | 0.0703 | 0.0578 |  |  | 0.0415 | 0.0655 |  | 0.0734 | 0.0565 | 0.043 |  | 0.0653 | 0.0404 |  |
| H76V | 0.0776 |  | 0.0535 |  | 0.0415 | 0.069 |  | 0.0749 | 0.0687 |  | 0.0594 | 0.0683 |  |  |  | 0.0703 |  |
| T174Q | 0.0678 | 0.0651 |  | 0.0593 |  | 0.0743 |  |  | 0.0795 |  |  | 0.0404 | 0.0484 |  | 0.0838 | 0.047 |  |
| N52A | 0.0632 | 0.0589 |  |  |  | 0.0651 | 0.087 | 0.0827 |  |  |  |  | 0.062 |  | 0.0621 | 0.0552 |  |
| E107I | 0.0556 | 0.043 |  |  | 0.0594 |  | 0.0708 |  |  | 0.0644 | 0.0589 |  | 0.0626 | 0.0662 |  |  | 0.0602 |
| Q118I | 0.0789 | 0.0619 |  |  |  |  |  | 0.0781 |  | 0.065 |  |  | 0.0704 | 0.0524 | 0.064 |  |  |
| V67N | 0.0444 | 0.0252 |  | 0.0677 | 0.0486 |  |  |  | 0.0593 |  | 0.0558 |  |  | 0.0412 | 0.068 | 0.0538 | 0.0478 |
| E223W | 0.062 | 0.0446 |  | 0.0713 | 0.064 | 0.0667 | 0.0612 |  |  |  |  | 0.0755 |  | 0.0616 | 0.0413 | 0.0867 |  |
| A170H | 0.0674 |  |  |  | 0.0534 |  |  | 0.0641 |  |  | 0.0562 |  |  |  |  | 0.0802 |  |
| H215P | 0.0842 | 0.0558 | 0.055 | 0.056 | 0.055 |  |  |  | 0.0537 |  |  | 0.0603 |  | 0.0586 | 0.0668 | 0.0567 | 0.077 |
| G63S | 0.0484 | 0.0581 | 0.0647 | 0.0689 | 0.0566 |  |  |  | 0.0702 |  | 0.0666 | 0.0564 |  |  | 0.0506 | 0.0547 |  |
| R102P | 0.0374 | 0.0497 | 0.0458 |  | 0.0364 | 0.046 | 0.0794 |  | 0.0485 |  |  | 0.0547 |  | 0.06 |  | 0.0397 |  |
| R87I | 0.0549 | 0.06 | 0.0667 |  | 0.0553 | 0.0618 |  | 0.0643 | 0.0625 |  | 0.0617 | 0.0604 | 0.0642 |  | 0.0658 | 0.0651 |  |
| R87A | 0.0609 |  | 0.0621 |  | 0.0628 | 0.0597 |  |  | 0.0913 | 0.0758 |  | 0.0557 |  |  | 0.068 | 0.0614 |  |
